Source: PubChem BioAssay (NCATS)
The inconclusive results got no clear call from the source; some entries with a clear call stand among them for comparison. Potencies of inconclusive entries are doubtful fits and often do not repeat. The source made the active and inactive calls. The call rests on the fitted dose curve; in most records, active means well fitted inhibition curve with a large enough effect; inconclusive means small, poorly fitted or top-dose-only effect; inactive means flat fitted curve, though single readings scatter.

biological target: Ubiquitin carboxyl-terminal hydrolase 1 (Homo sapiens) (UniProt O94782); test: Inhibitors of USP1/UAF1: Pilot qHTS (AID 504865); conditions: purified USP1/UAF1, Ub-rhodamine cleavage fluorescence; series mostly up to 114 µM;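 further: rhodamine fluorescence freed from ubiquitin-rhodamine substrate followed over time; nearly all actives have a fitted effect of over 35% in size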
UniProt O94782, sequence (O94782 whole entry, looked up): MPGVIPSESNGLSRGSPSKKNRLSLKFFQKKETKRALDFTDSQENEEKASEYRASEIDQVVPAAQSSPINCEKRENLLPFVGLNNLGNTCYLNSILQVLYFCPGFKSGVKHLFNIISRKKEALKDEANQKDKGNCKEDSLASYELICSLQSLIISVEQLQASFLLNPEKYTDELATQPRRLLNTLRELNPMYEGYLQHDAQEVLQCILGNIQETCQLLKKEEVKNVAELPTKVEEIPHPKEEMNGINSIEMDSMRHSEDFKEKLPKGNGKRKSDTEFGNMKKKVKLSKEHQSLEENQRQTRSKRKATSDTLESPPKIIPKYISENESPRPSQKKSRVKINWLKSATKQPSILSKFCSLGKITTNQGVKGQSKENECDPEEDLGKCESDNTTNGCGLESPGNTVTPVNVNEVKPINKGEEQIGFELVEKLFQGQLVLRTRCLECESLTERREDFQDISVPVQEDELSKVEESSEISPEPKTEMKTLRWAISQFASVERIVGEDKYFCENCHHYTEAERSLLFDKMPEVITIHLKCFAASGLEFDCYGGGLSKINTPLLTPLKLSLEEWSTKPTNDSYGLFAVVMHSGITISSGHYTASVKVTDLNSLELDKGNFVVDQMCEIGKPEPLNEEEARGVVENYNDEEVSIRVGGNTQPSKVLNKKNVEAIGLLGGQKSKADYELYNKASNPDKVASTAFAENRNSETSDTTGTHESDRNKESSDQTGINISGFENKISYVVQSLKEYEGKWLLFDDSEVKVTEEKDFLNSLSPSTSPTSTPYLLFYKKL
In short: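 Deubiquitinase activity followed as kinetic rhodamine fluorescence release from 150 nM Ub-Rho. 1 nM USP1/UAF1 with compound, after 15 min room-temperature preincubation, in HEPES pH 7.8 buffer containing TCEP, EDTA, BSA and Tween-20.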
Potency means the concentration at half of the fitted maximal effect; tags describe the fitted curve by direction and shape.

Potency, inactive:
CCN(CC)c1ncnc2c1ncn2[C@@H]1O[C@@H](COP(=O)(O)OP(=O)(O)C(Br)(Br)P(=O)(O)O)[C@H](O)[C@H]1O, Nc1nc2c(nc(Sc3ccc(Cl)cc3)n2C2OC(CO)C(O)C2O)c(=O)[nH]1 (stereo not given), N[C@@H](C(=O)O)c1ccc(P(=O)(O)O)cc1, O=C(Cc1ccccc1)NO, OC[C@@H](O)CN1CCN(c2ccccc2)CC1, CC1O[C@@H](Oc2c(-c3ccc(O)c(O)c3)oc3cc(O)cc(O)c3c2=O)C(O)C(O)C1O (stereo not given in full)

Potency, inconclusive:
CC(C)(CO)[C@H](O)C(=O)NCCC(=O)O 44.7 µM [inhibitor, single point], COc1ccc2c(c1)OC1(O)COc3cc(OC)c(OC)cc3C1=C2 (stereo not given) 50.1 µM [inhibitor, partial curve, poor fit], COC(=O)CCC(C)C1CCC2C3CC[C@H]4CC(O)CC[C@@]4(C)C3CC(O)[C@]12C (stereo not given in full) 63.1 µM [inhibitor, partial curve, poor fit], COc1ccc2c(c1OC)C(Cc1ccccc1)N1CCc3cc4c(cc3C1C2)OCO4 (stereo not given) 56.2 µM [inhibitor, partial curve, poor fit], CNC1CCC(c2ccc(Cl)c(Cl)c2)c2ccccc21 (stereo not given) 63.1 µM [inhibitor, partial curve, poor fit], CC(=O)O[C@@]1(C(C)=O)CCC2C3C=C(C)C4=CC(=O)CCC4(C)C3CCC21C (stereo not given in full) 50.1 µM [inhibitor, partial curve, poor fit], CC1=CC(=O)C2C(C)(C)CCC[C@@]2(C)[C@@]1(O)CCc1ccoc1 (stereo not given in full) 50.1 µM [inhibitor, partial curve], Cc1cccc(CNc2cc(-c3ccoc3)ncn2)c1 56.2 µM [inhibitor, partial curve, poor fit], Cc1cc(O)c(C=O)c2c1C(=O)Oc1c(COC(=O)/C=C/C(=O)O)c(O)c(C(=O)O)c(C)c1O2 56.2 µM [inhibitor, partial curve, poor fit], C[C@@H]1O[C@@H](OC[C@H]2O[C@@H](Oc3c(-c4cccc(O)c4O)oc4cc(O)cc(O)c4c3=O)[C@H](O)[C@@H](O)[C@@H]2O)[C@H](O)[C@H](O)[C@H]1O 56.2 µM [inhibitor, partial curve, poor fit], CC(=O)OC1CC2C(C)(C)C(=O)CC[C@]2(C)C2CC[C@@]3(C)C(c4ccoc4)OC(=O)C4OC43[C@]12C (stereo not given in full) 63.1 µM [inhibitor, partial curve, poor fit], NCC[C@H](O)C(=O)N[C@H]1C[C@@H](N)[C@@H](O[C@H]2O[C@@H](CN)[C@@H](O)[C@@H](O)[C@@H]2O)[C@@H](O)[C@@H]1O[C@H]1O[C@@H](CO)[C@@H](O)[C@@H](N)[C@@H]1O 44.7 µM [inhibitor, partial curve, poor fit], CC(C)c1c(O)ccc2c1CCC1[C@@](C)(CO)CCC[C@@]21C (stereo not given in full) 50.1 µM [inhibitor, partial curve], CCCCCCCCCCCCCCC(C(=O)O)C(O)(CC(=O)OC)C(=O)O (stereo not given) 56.2 µM [inhibitor, partial curve, poor fit], CC(=O)OC1CC2C(C)(C)C(O)CC[C@@]2(C)C2CC[C@@]3(C)C(c4ccoc4)OC(=O)C4O[C@@]43[C@]12C (stereo not given in full) 35.5 µM [inhibitor, full curve, poor fit], CC1(C)CC[C@]2(C(=O)O)CC[C@]3(C)C(=CCC4[C@@]5(C)CC[C@H](O)C(C)(C)C5[C@H](O)C[C@]43C)C2C1 (stereo not given in full) 56.2 µM [inhibitor, partial curve, poor fit], CC(CC(O)C1OC1(C)C)C1CCC2(C)C3=CCC4C(C)(C)C(=O)CCC4(C)C3CC[C@@]12C (stereo not given in full) 50.1 µM [inhibitor, partial curve, poor fit], CCOC(=O)C1=C(N)Oc2ccc(Br)cc2[C@@H]1[C@@H](C#N)C(=O)OCC 56.2 µM [inhibitor, partial curve, poor fit], C=CC(C1=CC(=O)C(OC)=C(OC)C1=O)c1ccccc1 (stereo not given) 56.2 µM [inhibitor, partial curve]
